No constants are given. Whether binding was seen depends on the method and setting. Binding seen in cells or lysates may run through a third protein. Some binding calls cover weakened binding; strength is not graded here. For part of these data: Where a sequence is shown, tags or fusion partners need not be part of it.
Legend:
Experiment in all cases: co-IP; anti-HA immunoprecipitates (12CA5 with protein A-Sepharose, or F7 anti-HA-agarose when probing for Mst3 or Mst4; 1.5 h, 4°C) of lysates (1% Nonidet P-40, 0.135 M NaCl, 10% glycerol, 20 mM Tris pH 8.0) of HEK293 cells transfected with HA-striatins; endogenous partners by immunoblot, partner/HA-striatin ratio by chemilumimager against wild type; 50 mM NaF and 100 nM okadaic acid in the lysis buffer in the phosphorylation experiments
[1] = molecular target: T1, HA-tagged L84A/L94A/L105A striatin (human) (UniProt O43815)
T1 sequence: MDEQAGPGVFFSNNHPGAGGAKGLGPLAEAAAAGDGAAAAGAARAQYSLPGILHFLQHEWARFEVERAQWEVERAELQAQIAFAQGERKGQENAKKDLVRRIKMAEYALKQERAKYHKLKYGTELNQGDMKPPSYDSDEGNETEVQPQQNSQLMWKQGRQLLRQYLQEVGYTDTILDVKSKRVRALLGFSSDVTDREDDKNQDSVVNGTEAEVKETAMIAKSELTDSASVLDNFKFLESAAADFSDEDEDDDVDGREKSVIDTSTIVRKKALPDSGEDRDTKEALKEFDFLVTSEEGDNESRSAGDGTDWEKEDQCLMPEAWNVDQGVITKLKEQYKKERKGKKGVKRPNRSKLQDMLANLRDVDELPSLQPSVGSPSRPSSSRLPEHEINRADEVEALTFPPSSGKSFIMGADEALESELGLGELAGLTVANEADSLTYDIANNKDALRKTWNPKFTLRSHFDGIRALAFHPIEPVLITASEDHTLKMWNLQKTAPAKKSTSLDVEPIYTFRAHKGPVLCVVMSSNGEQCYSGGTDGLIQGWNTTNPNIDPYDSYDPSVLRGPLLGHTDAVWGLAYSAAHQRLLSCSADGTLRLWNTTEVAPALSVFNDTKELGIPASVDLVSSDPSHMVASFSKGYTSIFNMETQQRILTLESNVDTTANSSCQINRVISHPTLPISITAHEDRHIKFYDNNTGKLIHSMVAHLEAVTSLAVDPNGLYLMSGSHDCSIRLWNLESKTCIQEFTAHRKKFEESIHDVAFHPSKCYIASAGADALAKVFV

[2] = molecular target: HA-tagged Δ(148-166) striatin (human) (UniProt O43815)
[3] = molecular target: T2, HA-tagged R88S/K89E striatin (human) (UniProt O43815)
T2 sequence: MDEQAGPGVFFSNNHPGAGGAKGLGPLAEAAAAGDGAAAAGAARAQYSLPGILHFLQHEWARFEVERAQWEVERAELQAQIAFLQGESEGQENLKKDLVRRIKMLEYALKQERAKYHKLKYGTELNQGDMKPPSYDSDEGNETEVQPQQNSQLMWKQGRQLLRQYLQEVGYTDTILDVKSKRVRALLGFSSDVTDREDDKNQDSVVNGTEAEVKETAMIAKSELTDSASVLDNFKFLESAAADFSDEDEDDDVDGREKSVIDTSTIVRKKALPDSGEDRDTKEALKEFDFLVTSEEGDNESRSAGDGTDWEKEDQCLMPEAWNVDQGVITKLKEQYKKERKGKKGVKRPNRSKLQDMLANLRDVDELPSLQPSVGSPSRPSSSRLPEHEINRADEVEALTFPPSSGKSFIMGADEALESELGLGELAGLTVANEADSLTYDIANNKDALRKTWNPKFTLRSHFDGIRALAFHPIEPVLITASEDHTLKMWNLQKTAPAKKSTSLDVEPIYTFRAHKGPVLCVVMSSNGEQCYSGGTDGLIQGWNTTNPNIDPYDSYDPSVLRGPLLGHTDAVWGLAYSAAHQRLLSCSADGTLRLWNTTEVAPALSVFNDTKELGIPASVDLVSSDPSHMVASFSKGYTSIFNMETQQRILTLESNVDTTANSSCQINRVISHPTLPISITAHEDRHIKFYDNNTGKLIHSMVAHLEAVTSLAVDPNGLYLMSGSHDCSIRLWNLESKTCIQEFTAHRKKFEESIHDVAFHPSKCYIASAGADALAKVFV

Measured: binding

B1: S/G2 nuclear autoantigen (SG2NA) (protein, UniProt Q13033 1-797)
chain: MDELAGGGGGGPGMAAPPRQQQGPGGNLGLSPGGNGAAGGGGPPASEGAGPAAGPELSRPQQYTIPGILHYIQHEWARFEMERAHWEVERAELQARIAFLQGERKGQENLKKDLVRRIKMLEYALKQERAKYHKLKYGTELNQGDLKMPTFESEETKDTEAPTAPQNSQLTWKQGRQLLRQYLQEVGYTDTILDVRSQRVRSLLGLSNSEPNGSVETKNLEQILNGGESPKQKGQEIKRSSGDVLETFNFLENADDSDEDEENDMIEGIPEGKDKHRMNKHKIGNEGLAADLTDDPDTEEALKEFDFLVTAEDGEGAGEARSSGDGTEWDKDDLSPTAEVWDVDQGLISKLKEQYKKERKGKKGVKRANRTKLYDMIADLGDDELPHIPSGIINQSRSASTRMTDHEGARAEEAEPITFPSGGGKSFIMGSDDVLLSVLGLGDLADLTVTNDADYSYDLPANKDAFRKTWNPKYTLRSHFDGVRALAFHPVEPVLVTASEDHTLKLWNLQKTVPAKKSASLDVEPIYTFRAHIGPVLSLAISSNGEQCFSGGIDATIQWWNMPSPSVDPYDTYEPNVLAGTLVGHTDAVWGLAYSGIKNQLLSCSADGTVRLWNPQEKLPCICTYNGDKKHGIPTSVDFIGCDPAHMVTSFNTGSAVIYDLETSQSLVILSSQVDSGLQSNNHINRVVSHPTLPVTITAHEDRHIKFFDNKTGKMIHSMVAHLDAVTSLAVDPNGIYLMSGSHDCSIRLWNLDSKTCVQEITAHRKKLDESIYDVAFHSSKAYIASAGADALAKVFV
binds: all assays above

B2: Mob3/phocein (protein, UniProt Q9Y3A3 1-225)
chain: MVMAEGTAVLRRNRPGTKAQDFYNWPDESFDEMDSTLAVQQYIQQNIRADCSNIDKILEPPEGQDEGVWKYEHLRQFCLELNGLAVKLQSECHPDTCTQMTATEQWIFLCAAHKTPKECPAIDYTRHTLDGAACLLNSNKYFPSRVSIKESSVAKLGSVCRRIYRIFSHAYFHHRQIFDEYENETFLCHRFTKFVMKYNLMSKDNLIVPILEEEVQNSVSGESEA
binds: all assays above

Reference: article PMC3217859
